# Data taken from the supplement of paper PMC8728848.
# The other results are listed elsewhere or left out.
# What was measured:
# Experiment in all cases: glycan array binding signal (z-score within array); higher = stronger binding
# Conditions in all cases: glycan notation: IUPAC condensed, linker removed
# [1] = target: Neu5Ac(a2-3)Gal(b1-3)[Fuc(a1-4)]GlcNAc(b1-3)Gal(b1-4)[Fuc(a1-3)]GlcNAc
# Summary of the method: (§1)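 Columns mapping to the same glycan were averaged after glycan names were converted to IUPAC-condensed notation. The data come from 3228 arrays in the Consortium for Functional Glycomics database, limited to those with an available protein sequence. Binding is reported as a within-array Z-score averaged across arrays of one protein sequence and across linkers.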
# [2] = target: Neu5Ac(a2-3)Gal(b1-3)[Neu5Ac(a2-3)Gal(b1-4)]GlcNAc
# Summary of the method: as §1
# [3] = target: Neu5Ac(a2-3)Gal(b1-3)[Neu5Ac(a2-6)]GalNAc
# Summary of the method: as §1
# [4] = target: Neu5Ac(a2-3)Gal(b1-4)Glc
# Summary of the method: as §1
# [5] = target: Neu5Ac(a2-3)Gal(b1-4)GlcNAc
# Summary of the method: as §1
# [6] = target: Neu5Ac(a2-3)Gal(b1-4)GlcNAc(b1-2)Man(a1-3)[GlcNAc(b1-2)Man(b1-4)GlcNAc(b1-2)Man(a1-6)]Man(b1-4)GlcNAc(b1-4)GlcNAc
# Summary of the method: as §1
# [7] = target: Neu5Ac(a2-3)Gal(b1-4)GlcNAc(b1-2)Man(a1-3)[Neu5Ac(a2-6)Gal(b1-4)GlcNAc(b1-2)Man(a1-6)]Man(b1-4)GlcNAc(b1-4)GlcNAc
# Summary of the method: as §1
# [8] = target: Neu5Ac(a2-3)Gal(b1-4)GlcNAc(b1-3)Gal(b1-3)GlcNAc
# Summary of the method: as §1
# [9] = target: Neu5Ac(a2-3)Gal(b1-4)GlcNAc(b1-3)Gal(b1-4)GlcNAc
# Summary of the method: as §1
# [10] = target: Neu5Ac(a2-3)Gal(b1-4)GlcNAc(b1-3)Gal(b1-4)GlcNAc(b1-3)Gal(b1-4)GlcNAc
# Summary of the method: as §1
# [11] = target: Neu5Ac(a2-3)Gal(b1-4)GlcNAc(b1-3)Gal(b1-4)[Fuc(a1-3)]GlcNAc
# Summary of the method: as §1
# [12] = target: Neu5Ac(a2-3)Gal(b1-4)GlcNAc(b1-6)[Gal(b1-3)]GalNAc
# Summary of the method: as §1
# [13] = target: Neu5Ac(a2-3)Gal(b1-4)GlcNAc(b1-6)[Neu5Ac(a2-3)Gal(b1-3)]GalNAc
# Summary of the method: as §1
# [14] = target: Neu5Ac(a2-3)Gal(b1-4)GlcNAc6S
# Summary of the method: as §1
# [15] = target: Neu5Ac(a2-3)Gal(b1-4)[Fuc(a1-3)]GlcNAc
# Summary of the method: as §1
# [16] = target: Neu5Ac(a2-3)Gal(b1-4)[Fuc(a1-3)]GlcNAc(b1-3)Gal
# Summary of the method: as §1
# [17] = target: Neu5Ac(a2-3)Gal(b1-4)[Fuc(a1-3)]GlcNAc(b1-3)Gal(b1-4)GlcNAc
# Summary of the method: as §1
# [18] = target: Neu5Ac(a2-3)Gal(b1-4)[Fuc(a1-3)]GlcNAc(b1-3)Gal(b1-4)[Fuc(a1-3)]GlcNAc(b1-3)Gal(b1-4)[Fuc(a1-3)]GlcNAc
# Summary of the method: as §1
# [19] = target: Neu5Ac(a2-3)Gal(b1-4)[Fuc(a1-3)]GlcNAc(b1-6)[Gal(b1-3)]GalNAc
# Summary of the method: as §1
# [20] = target: Neu5Ac(a2-3)Gal(b1-4)[Fuc(a1-3)]GlcNAc6S
# Summary of the method: as §1
# [21] = target: Neu5Ac(a2-3)Gal6S(b1-4)GlcNAc
# Summary of the method: as §1
# [22] = target: Neu5Ac(a2-3)Gal6S(b1-4)[Fuc(a1-3)]GlcNAc
# Summary of the method: as §1
# [23] = target: Neu5Ac(a2-3)GalNAc
# Summary of the method: as §1
# [24] = target: Neu5Ac(a2-3)GalNAc(b1-4)GlcNAc
# Summary of the method: as §1
# [25] = target: Neu5Ac(a2-3)[GalNAc(b1-4)]Gal(b1-4)Glc
# Summary of the method: as §1
# [26] = target: Neu5Ac(a2-3)[GalNAc(b1-4)]Gal(b1-4)GlcNAc
# Summary of the method: as §1
# [27] = target: Neu5Ac(a2-3)[Neu5Ac(a2-6)]GalNAc
# Summary of the method: as §1
# [28] = target: Neu5Ac(a2-6)Gal
# Summary of the method: as §1
# [29] = target: Neu5Ac(a2-6)Gal(b1-4)Glc
# Summary of the method: as §1
# [30] = target: Neu5Ac(a2-6)Gal(b1-4)GlcNAc
# Summary of the method: as §1
# [31] = target: Neu5Ac(a2-6)Gal(b1-4)GlcNAc(b1-2)Man(a1-3)[Gal(b1-4)GlcNAc(b1-2)Man(a1-6)]Man(b1-4)GlcNAc(b1-4)GlcNAc
# Summary of the method: as §1
# [32] = target: Neu5Ac(a2-6)Gal(b1-4)GlcNAc(b1-2)Man(a1-3)[GlcNAc(b1-2)Man(a1-6)]Man(b1-4)GlcNAc(b1-4)GlcNAc
# Summary of the method: as §1
# [33] = target: Neu5Ac(a2-6)Gal(b1-4)GlcNAc(b1-2)Man(a1-3)[GlcNAc(b1-2)Man(b1-4)GlcNAc(b1-2)Man(a1-6)]Man(b1-4)GlcNAc(b1-4)GlcNAc
# Summary of the method: as §1
# [34] = target: Neu5Ac(a2-6)Gal(b1-4)GlcNAc(b1-2)Man(a1-3)[Neu5Ac(a2-6)Gal(b1-4)GlcNAc(b1-2)Man(a1-6)]Man(b1-4)GlcNAc(b1-4)GlcNAc
# Summary of the method: as §1
# [35] = target: Neu5Ac(a2-6)Gal(b1-4)GlcNAc(b1-2)Man(a1-6)[Gal(b1-4)GlcNAc(b1-2)Man(a1-3)]Man(b1-4)GlcNAc(b1-4)GlcNAc
# Summary of the method: as §1
# [36] = target: Neu5Ac(a2-6)Gal(b1-4)GlcNAc(b1-2)Man(a1-6)[GlcNAc(b1-2)Man(a1-3)]Man(b1-4)GlcNAc(b1-4)GlcNAc
# Summary of the method: as §1
# [37] = target: Neu5Ac(a2-6)Gal(b1-4)GlcNAc(b1-3)Gal(b1-4)GlcNAc
# Summary of the method: as §1
# [38] = target: Neu5Ac(a2-6)Gal(b1-4)GlcNAc(b1-3)Gal(b1-4)[Fuc(a1-3)]GlcNAc(b1-3)Gal(b1-4)[Fuc(a1-3)]GlcNAc
# Summary of the method: as §1
# [39] = target: Neu5Ac(a2-6)Gal(b1-4)GlcNAc6S
# Summary of the method: as §1
# [40] = target: Neu5Ac(a2-6)GalNAc
# Summary of the method: as §1
# [41] = target: Neu5Ac(a2-6)GalNAc(b1-4)GlcNAc
# Summary of the method: as §1
# [42] = target: Neu5Ac(a2-8)Neu5Ac
# Summary of the method: as §1
# [43] = target: Neu5Ac(a2-8)Neu5Ac(a2-3)Gal(b1-4)Glc
# Summary of the method: as §1
# [44] = target: Neu5Ac(a2-8)Neu5Ac(a2-3)[GalNAc(b1-4)]Gal(b1-4)Glc
# Summary of the method: as §1
# [45] = target: Neu5Ac(a2-8)Neu5Ac(a2-8)Neu5Ac
# Summary of the method: as §1
# [46] = target: Neu5Ac(a2-8)Neu5Ac(a2-8)Neu5Ac(a2-3)Gal(b1-4)Glc
# Summary of the method: as §1
# [47] = target: Neu5Ac(a2-8)Neu5Ac(a2-8)Neu5Ac(a2-3)[GalNAc(b1-4)]Gal(b1-4)Glc
# Summary of the method: as §1
# [48] = target: Neu5Ac(a2-8)Neu5Ac(a2-8)Neu5Ac(a2-8)Neu5Ac(a2-3)[GalNAc(b1-4)]Gal(b1-4)Glc
# Summary of the method: as §1
# [49] = target: Neu5Ac(b2-6)Gal(b1-4)GlcNAc
# Summary of the method: as §1
# [50] = target: Neu5Ac(b2-6)GalNAc
# Summary of the method: as §1
# [51] = target: Neu5Ac9Ac(a2-6)Gal(b1-4)GlcNAc
# Summary of the method: as §1
# [52] = target: Neu5Gc(a2-3)Gal(b1-3)GlcNAc
# Summary of the method: as §1
# [53] = target: Neu5Gc(a2-3)Gal(b1-3)[Fuc(a1-4)]GlcNAc
# Summary of the method: as §1
# [54] = target: Neu5Gc(a2-3)Gal(b1-4)Glc
# Summary of the method: as §1
# [55] = target: Neu5Gc(a2-3)Gal(b1-4)GlcNAc
# Summary of the method: as §1
# [56] = target: Neu5Gc(a2-3)Gal(b1-4)[Fuc(a1-3)]GlcNAc
# Summary of the method: as §1
# [57] = target: Neu5Gc(a2-6)Gal(b1-4)GlcNAc
# Summary of the method: as §1
# [58] = target: Neu5Gc(a2-6)GalNAc
# Summary of the method: as §1
# [59] = target: Neu5Gc(b2-6)Gal(b1-4)GlcNAc
# Summary of the method: as §1
binder,measurement,setting,value
"MIC1 (Toxoplasma gondii), O00834 (protein) MGQALFLTVLLPVLFGVGPEAYGEASHSHSPASGRYIQQMLDQRCQEIAAELCQSGLRKMCVPSSRIVARNAVGITHQNTLQWRCFDTASLLESNQENNGVNCVDDCGHTIPCPGGVHRQNSNHATRHEILSKLVEEGVQRFCSPYQASANKYCNDKFPGTIARRSKGFGNNVEVAWRCYEKASLLYSVYAECASNCGTTWYCPGGRRGTSTELDKRHYTEEEGIRQAIGSVDSPCSEVEVCLPKDENPPLCLDESGQISRTGGGPPSQPPEMQQPADRSDERGGGKEQSPGGEAQPDHPTKGGNIDLPEKSTSPEKTPKTEIHGDSTKATLEEGQQLTLTFISTKLDVAVGSCHSLVANFLDGFLKFQTGSNSAFDVVEVEEPAGPAVLTIGLGHKGRLAVVLDYTRLNAALGSAAYVVEDSGCSSSEEVSFQGVGSGATLVVTTLGESPTAVSA",glycan array binding signal (z-score),[1],-0.334
same,glycan array binding signal (z-score),[2],4.31
same,glycan array binding signal (z-score),[3],2.18
same,glycan array binding signal (z-score),[4],-0.2
same,glycan array binding signal (z-score),[5],1.57
same,glycan array binding signal (z-score),[6],3.01
same,glycan array binding signal (z-score),[7],2.72
same,glycan array binding signal (z-score),[8],-0.139
same,glycan array binding signal (z-score),[9],-0.368
same,glycan array binding signal (z-score),[10],-0.289
same,glycan array binding signal (z-score),[11],-0.229
same,glycan array binding signal (z-score),[12],-0.177
same,glycan array binding signal (z-score),[13],-0.104
same,glycan array binding signal (z-score),[14],6.25
same,glycan array binding signal (z-score),[15],-0.152
same,glycan array binding signal (z-score),[16],0.023
same,glycan array binding signal (z-score),[17],-0.303
same,glycan array binding signal (z-score),[18],-0.178
same,glycan array binding signal (z-score),[19],0.387
same,glycan array binding signal (z-score),[20],-0.211
same,glycan array binding signal (z-score),[21],-0.301
same,glycan array binding signal (z-score),[22],-0.178
same,glycan array binding signal (z-score),[23],-0.035
same,glycan array binding signal (z-score),[24],-0.232
same,glycan array binding signal (z-score),[25],2.82
same,glycan array binding signal (z-score),[26],5.43
same,glycan array binding signal (z-score),[27],-0.313
same,glycan array binding signal (z-score),[28],-0.007
same,glycan array binding signal (z-score),[29],-0.281
same,glycan array binding signal (z-score),[30],-0.072
same,glycan array binding signal (z-score),[31],-0.368
same,glycan array binding signal (z-score),[32],-0.196
same,glycan array binding signal (z-score),[33],0.367
same,glycan array binding signal (z-score),[34],-0.189
same,glycan array binding signal (z-score),[35],0.312
same,glycan array binding signal (z-score),[36],0.082
same,glycan array binding signal (z-score),[37],-0.201
same,glycan array binding signal (z-score),[38],-0.268
same,glycan array binding signal (z-score),[39],-0.128
same,glycan array binding signal (z-score),[40],-0.123
same,glycan array binding signal (z-score),[41],-0.152
same,glycan array binding signal (z-score),[42],-0.258
same,glycan array binding signal (z-score),[43],-0.311
same,glycan array binding signal (z-score),[44],-0.142
same,glycan array binding signal (z-score),[45],-0.176
same,glycan array binding signal (z-score),[46],-0.192
same,glycan array binding signal (z-score),[47],-0.255
same,glycan array binding signal (z-score),[48],-0.193
same,glycan array binding signal (z-score),[49],-0.064
same,glycan array binding signal (z-score),[50],-0.201
same,glycan array binding signal (z-score),[51],-0.294
same,glycan array binding signal (z-score),[52],-0.261
same,glycan array binding signal (z-score),[53],-0.289
same,glycan array binding signal (z-score),[54],-0.259
same,glycan array binding signal (z-score),[55],9.71
same,glycan array binding signal (z-score),[56],-0.21
same,glycan array binding signal (z-score),[57],-0.218
same,glycan array binding signal (z-score),[58],-0.313
same,glycan array binding signal (z-score),[59],-0.333
